The record followed here is article PMC4336329 (PLoS ONE, 2015).

The campaign covered roughly 310,000 compounds. About 2,200 (0.71%) showed an effect of 50% or more. The effect is printed as a negative number. Some of the results follow.

Sequence of human ether-à-go-go-related gene (hERG) potassium channel (Q12809 whole entry, looked up): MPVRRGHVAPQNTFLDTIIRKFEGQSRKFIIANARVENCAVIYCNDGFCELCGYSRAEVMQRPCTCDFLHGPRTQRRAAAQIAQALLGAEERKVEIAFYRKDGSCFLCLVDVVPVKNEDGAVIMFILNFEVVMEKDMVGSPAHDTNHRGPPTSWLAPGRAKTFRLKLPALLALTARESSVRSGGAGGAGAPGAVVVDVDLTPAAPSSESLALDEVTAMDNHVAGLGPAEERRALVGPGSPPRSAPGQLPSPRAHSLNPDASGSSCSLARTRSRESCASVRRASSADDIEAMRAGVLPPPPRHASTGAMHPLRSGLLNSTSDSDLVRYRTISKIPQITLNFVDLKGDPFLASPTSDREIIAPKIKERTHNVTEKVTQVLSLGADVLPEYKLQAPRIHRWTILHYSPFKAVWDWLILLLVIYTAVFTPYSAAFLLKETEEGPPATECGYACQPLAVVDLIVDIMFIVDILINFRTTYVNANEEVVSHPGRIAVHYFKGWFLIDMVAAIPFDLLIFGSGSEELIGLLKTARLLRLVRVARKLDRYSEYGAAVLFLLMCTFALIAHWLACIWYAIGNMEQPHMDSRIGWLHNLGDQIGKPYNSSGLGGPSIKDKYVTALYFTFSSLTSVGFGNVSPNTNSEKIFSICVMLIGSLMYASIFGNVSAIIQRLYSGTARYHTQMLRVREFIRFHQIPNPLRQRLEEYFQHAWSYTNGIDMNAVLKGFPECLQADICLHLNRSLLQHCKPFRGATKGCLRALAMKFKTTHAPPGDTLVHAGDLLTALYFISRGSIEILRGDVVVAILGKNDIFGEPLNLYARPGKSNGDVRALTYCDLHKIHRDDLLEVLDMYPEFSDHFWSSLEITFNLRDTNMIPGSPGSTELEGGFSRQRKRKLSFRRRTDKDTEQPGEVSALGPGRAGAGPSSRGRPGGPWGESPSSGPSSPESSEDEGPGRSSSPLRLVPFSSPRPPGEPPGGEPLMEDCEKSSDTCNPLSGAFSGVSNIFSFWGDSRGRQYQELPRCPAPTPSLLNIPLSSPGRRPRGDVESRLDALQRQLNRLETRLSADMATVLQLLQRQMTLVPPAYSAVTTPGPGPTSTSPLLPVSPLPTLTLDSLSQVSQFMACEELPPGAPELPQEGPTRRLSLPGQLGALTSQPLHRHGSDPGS

The test addresses human ether-à-go-go-related gene (hERG) potassium channel (human, UniProt Q12809). Description: primary screen, population patch clamp on CHO cells stably expressing hERG.
Take `Cc1cccc(-n2c(C)nc3ccccc3c2=O)c1C`: the “hERG current change (%, negative = inhibition) at 1uM” value is recorded as 5.7%.
To `COC(=O)COc1ccc(Cl)cc1C1Nc2ccccc2C(=O)N1c1ccc(OC)cc1` (stereo not shown) belongs 1.01%.
The same measure for `O=S(=O)(c1ccccc1)c1nc(-c2cccs2)oc1NCC1CCCO1` (stereo not shown): 10.8%; for `CCn1c(COc2ccc(Cl)cc2)nnc1SCc1nc2ccccc2[nH]1`: -11.9%.
To `CN(C)c1cccc(C(=O)N2CCCC(CCC(=O)NCc3ccccc3F)C2)c1` (stereo not shown) belongs 12.8%; to `O=C(/C=C/c1ccc(O)c(O)c1)NC(=O)c1ccccc1O`, 13.3%.
For the compound `NS(=O)(=O)c1ccc(N=Cc2ccc(Br)s2)cc1`, the “hERG current change (%, negative = inhibition) at 1uM” value turned out to be 7.51%.
To `CCOc1ccc(NC(=O)C2CCN(S(=O)(=O)c3ccc4c(c3)CC(C)N4C(C)=O)CC2)cc1` (stereo not shown) belongs 10.7%.
The same measure for `C/C(=N\NC(=O)c1nnn(-c2nonc2N)c1-c1cccs1)c1cccc(O)c1`: 2.42%; for `CC1=C(C(=O)NC2CC(C)(C)Cc3c2cnn3-c2ccc(C)cc2)OCCO1` (stereo not shown): -8.97%.
The same measure for `COc1ccc(NC(=O)CCC(=O)N/N=C/c2cccnc2)cc1`: 7.64%; for `C[C@@H]1CCC2[C@](C)(CO)[C@@H](O)CC[C@]2(C)[C@@]12CC[C@@](CO)(CC(=O)[O-])O2.[Na+]` (stereo partly shown): 12.5%.
As to `CC(=O)N1c2ccc(S(=O)(=O)NCCc3ccc(Cl)cc3)cc2CC1C` (stereo not shown), the “hERG current change (%, negative = inhibition) at 1uM” value turned out to be 15.8%.
The same measure for `Cc1ccc(-n2nc3ccc(NC(=S)NC(=O)/C=C/c4ccco4)cc3n2)cc1`: 2.22%; for `COc1cccc(/C=C/C(=O)NCC2CCCCC2)c1`: 13.8%; for `CCCCC(c1nnnn1CS(=O)(=O)c1ccc(C)cc1)N1CCN(C)CC1.Cl` (stereo not shown): 8.9%.
The same measure for `Cc1cccn2c(=O)c(/C=C(\C#N)S(=O)(=O)c3ccccc3)c(N3CCC(C(N)=O)CC3)nc12`: 10.1%; for `CCC(C(=O)NC(C)(C)C)N(C(=O)c1ccc(Cl)nc1)C1CCCC1` (stereo not shown): 10.1%; for `Cc1ccc(Oc2cc(N3CCOCC3)nc(-c3ccccc3)n2)cc1`: 0.258%.
The same measure for `CCCCOc1ccc2ccccc2c1C=O`: 18.6%.
For `CC(=O)c1cccc(NC(=O)CCc2nnc3ccc(NCc4ccc5c(c4)OCO5)nn23)c1`, the “hERG current change (%, negative = inhibition) at 1uM” value was 17%.
The same measure for `Cc1nnc(-c2cnn(-c3ccccc3)c2N)n1Cc1ccncc1`: 2.39%; for `COc1cc2c(cc1OC)C(C)N(C(=O)c1cc(Cl)nc(Cl)c1)CC2` (stereo not shown): 12.2%.
To `O=C(Nc1ccc(F)cc1)c1ccc(Br)c(S(=O)(=O)N2CCOCC2)c1` belongs -2.86%; to `Cc1ccc(OCC(=O)NNC(=O)CCC(=O)Nc2ccc(C)cc2C)cc1`, 17.4%; to `CC(=O)Nc1cccc(NC(=O)CCn2c(=O)sc3ccccc32)c1`, 22.2%.
To `O=C(NC1CCCCC1)C(c1ccco1)N(C(=O)c1csnn1)c1ccccc1` (stereo not shown) belongs 7.66%; to `CN(C)S(=O)(=O)N1CCC(CO)(CCc2ccccc2)CC1`, 12%; to `COC(=O)CCCC1=CC2=CC(=O)C(C)(OC(=O)c3cccs3)C(=O)C2=CN1C1CC1` (stereo not shown), 14.7%.
For `O=C(Nn1cnnc1)c1cccc(S(=O)(=O)N2CCOCC2)c1`, the “hERG current change (%, negative = inhibition) at 1uM” value is 14.6%.
Take `CSCC[C@H](NC(=O)OC(C)(C)C)C(=O)N/N=C/c1cc2ccc(C)cc2nc1Cl`: the “hERG current change (%, negative = inhibition) at 1uM” value was determined as 7.11%.
The same measure for `CCc1ccccc1NC(=O)CCc1nc(-c2ccc(C)cc2)no1`: 9.68%.
To `CCn1c2ccccc2c2nnc(SCC(=O)N3CC(C)OC(C)C3)nc21` (stereo not shown) belongs 0.801%; to `O=C(COc1ccccc1[N+](=O)[O-])NCc1cccnc1`, -1.72%; to `O=C(N/N=C/c1ccco1)C12CC3CC(CC(C3)C1)C2`, 16.7%.
Turning to `COc1cc2c(cc1NC(=O)COC(=O)[C@@H](NS(=O)(=O)c1cccc(Cl)c1)C(C)C)oc1ccccc12`, the “hERG current change (%, negative = inhibition) at 1uM” value is given as 16.3%.
As for `CCOc1ccc(CN2CCNC(=O)C2CC(=O)NCCN2CCOC2=O)cc1` (stereo not shown), the “hERG current change (%, negative = inhibition) at 1uM” value is 11.8%.
The same measure for `COc1ccc(NC(=O)C/C(C)=N/NC(=O)c2ccco2)c([N+](=O)[O-])c1`: -5.76%; for `CCOc1ccccc1C1C(C#N)=C(N)Oc2cc(C)n(C)c(=O)c21` (stereo not shown): 6.55%; for `Cc1cc(C(=O)OCC(=O)NC2CCCCC2)c(C)o1`: 13.3%.
To `O=[N+]([O-])c1sccc1CS(=O)(=O)c1ccccc1` belongs 3.21%; to `C[C@@H](C(=O)Nc1ccc2ccccc2c1)[C@H]1C[C@]1(C)[C@H](NC(=O)c1cnccn1)c1ccccc1`, 14.6%; to `COc1ccc(S(=O)(=O)N(C)CC(=O)Nc2ccc3c(c2)OCO3)cc1`, -8.35%.
`CC(C)N1CC23C=CC(O2)C(C(=O)OCc2ccccc2)C3C1=O` (stereo not shown): the “hERG current change (%, negative = inhibition) at 1uM” value is reported as 1.79%.
To `COc1ccc(C2CC(c3cccc(C)c3)n3nc(N)nc3N2)cc1` (stereo not shown) belongs -8.57%.
On to `Cc1ccc(CNC(=O)C2CC(c3cccc(F)c3)=NO2)cc1` (stereo not shown), for which the “hERG current change (%, negative = inhibition) at 1uM” value is recorded as 10.2%.
To `COc1ccc(-n2c(C(C)(C)C)csc2=Nc2c(C)n(C)n(-c3ccccc3)c2=O)cc1` belongs 8.01%; to `O=C(Nc1ccccc1)c1nnsc1S(=O)(=O)c1ccc(Cl)cc1`, 7.55%; to `C=CCNC(=S)NNC(=O)c1cccc2ccccc12`, 6.67%.
The same measure for `CCCCN(C)CCCNC(=O)c1cc(Nc2ccc(OC)c(OC)c2)nc2ccccc12`: 12%.
On to `O=C1[C@H]2[C@H](C=CC[C@H]2C(=O)N2CCOCC2)CCN1Cc1ccccc1`, for which the “hERG current change (%, negative = inhibition) at 1uM” value is reported as 2.87%.
The same measure for `CCCCNC(=O)C1Cc2cc(S(=O)(=O)N3CCCC3)ccc2N1C(C)=O` (stereo not shown): 10.6%.
`CCCc1cc(=O)c2ccc(OC/C(C)=N/O)cc2o1`: the “hERG current change (%, negative = inhibition) at 1uM” value amounted to 9.62%.
On to `Cc1c(OCC(=O)NCCCN2CCOCC2)ccc2c(-c3ccccc3)cc(=O)oc12`, for which the “hERG current change (%, negative = inhibition) at 1uM” value was found to be 3.35%.
To `O=C(O)CCc1[nH]c2ccccc2c1Sc1ccccc1` belongs 18.4%; to `CN(C)S(=O)(=O)c1ccc(C(=O)OCC(=O)Nc2cccnc2Cl)cc1`, 11.6%.
The same measure for `CN(C)c1ccc(C(CC(=O)O)C(=O)O)cc1` (stereo not shown): 12.7%.
The same measure for `CN(C)S(=O)(=O)c1cccc(NC(=O)COC(=O)c2cc(-c3cccc(Br)c3)nc3ccccc23)c1`: 6.67%.
Take `CC(C)CCN1CCN(Cc2cccn2-c2nccs2)CC1CCO` (stereo not shown): the “hERG current change (%, negative = inhibition) at 1uM” value is on record as -17.6%.
Turning to `Cc1cccc(N=Nc2c(C)nn(-c3ccccc3)c2N)c1C`, the “hERG current change (%, negative = inhibition) at 1uM” value was 4.34%.
To `Cc1cccc(-c2noc(CN(C)C(=O)c3ccc4c(c3)OCO4)n2)c1` belongs 8.63%; to `CCOc1ccccc1N=NC1C(=O)N(C(N)=S)N=C1C` (stereo not shown), -2.02%.
To `Cc1nn(C2CCS(=O)(=O)C2)c(Cl)c1/C=C/C(=O)OCC(=O)c1c[nH]c2ccccc12` (stereo not shown) belongs 3.66%.
As to `COc1ccc(NC(=O)[C@@H]2CC=C[C@@H]3CCN(Cc4ccccc4)C(=O)[C@@H]32)cc1`, the “hERG current change (%, negative = inhibition) at 1uM” value turned out to be 10.7%.
With `CS(=O)(=O)N1CCCC(c2nc(-c3ccc(S(=O)(=O)NCc4ccccc4)cc3)no2)C1` (stereo not shown), the “hERG current change (%, negative = inhibition) at 1uM” value is given as -0.704%.
To `Cc1cccc(NC(=O)CN(C)S(=O)(=O)c2cccc3nsnc23)c1C` belongs 3.52%; to `Cc1cccc(NC(=O)COc2ccc(/C=N\n3cnnc3)cc2)c1`, -3.16%; to `O=C(COc1ccccc1[N+](=O)[O-])OCCCOC(=O)COc1ccccc1[N+](=O)[O-]`, 1.57%.
The same measure for `Cc1occc1C(=O)NNC(=S)NC(=O)COc1ccc(Cl)cc1Cl`: 3.27%; for `Cc1ccc(N2CC(C(=O)Nc3cccnc3)CC2=O)cc1` (stereo not shown): 3.5%; for `COc1ccc(NC(=O)c2[nH]c(C)c(C(C)=O)c2C)cc1S(=O)(=O)N1CCOCC1`: 4.45%.
Regarding `COc1ccccc1Nc1nc2ccccc2n1C`, the “hERG current change (%, negative = inhibition) at 1uM” value came out at 8%.
The same measure for `O=C(NCc1ccccc1)/C(=C\c1ccc(O)cc1)NC(=O)c1ccco1`: 2.92%; for `Cc1ccc(N(C(=O)c2csnn2)C(C(=O)NCc2ccccc2)c2cccnc2)cc1` (stereo not shown): 13.5%; for `FC(F)(F)c1cc(C(F)(F)F)c2ccc(N3CCN(c4ccc(Cl)cc4)CC3)nc2n1`: 6.03%.
The same measure for `CNC(=S)N(Cc1ccccc1)Cc1cccnc1`: 14.1%; for `CS(=O)(=O)N(CC(=O)N1CCOCC1)c1cccc([N+](=O)[O-])c1`: 6.43%; for `Cl.Nc1ccc(N(CCO)CCO)cc1`: 13.7%.
The same measure for `CCCCn1c(SCc2nc(N)nc(N3CCCCC3)n2)nc2c1c(=O)n(C)c(=O)n2C`: 8.65%.
As to `CNc1ccccc1C(=O)OCC(C)=O`, the “hERG current change (%, negative = inhibition) at 1uM” value is on record as 12.9%.
The same measure for `COC(=O)C1=C(c2ccc(F)cc2OCc2ccccc2)C[C@@H]2CC[C@H]1N2C(=O)NCc1ccc(C)cc1`: 12.6%.
To `O=c1c2ccccc2cnn1Cc1n[nH]c(=S)n1-c1ccc(F)cc1` belongs 12.6%.
To `CC1=CC(=NOC(=O)c2cccc([N+](=O)[O-])c2)C=C(C)C1=O` belongs 14.1%; to `CCN(C(=O)C1CCCN1S(=O)(=O)c1cccc2nsnc12)c1ccccc1` (stereo not shown), 5.18%.
In the case of `Cc1oc2ccc(O)cc2c1C(=O)c1ccc(Cl)cc1`, the “hERG current change (%, negative = inhibition) at 1uM” value is 12.8%.
